Measurements from PubChem BioAssay AID624417 (National Center for Advancing Translational Sciences (NCATS), 2012).
The whole screen tested about 410,000 compounds, of which about 6,400 (1.6%) were called active. The shares of active, inactive and inconclusive entries below differ from those in the screen. The call rests on the fitted dose curve; in most records, active means well fitted inhibition curve with a large enough effect; inconclusive means small, poorly fitted or top-dose-only effect; inactive means no such curve, though single readings can be large or run the other way. A potency beside an inconclusive call is a rough fit, not a confirmed value.

biological target: Glucagon-like peptide 1 receptor (Homo sapiens) (UniProt P43220); assay: qHTS of GLP-1 Receptor Inverse Agonists (Inhibition Mode); conditions: HEK293 GLP-1R CRE-luciferase, luminescence, 24 h, GLP-1R form is constitutively active; series mostly up to 38.3 µM; further: nearly all actives have a fitted effect of over 55% in size
In short: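 HEK293 cells stably co-expressing a cAMP-responsive luciferase reporter and constitutively active GLP-1R were seeded, incubated 12 h, then exposed to compounds for 24 h at 37 C. Luminescence was read 12 min after detection reagent; inverse agonists lower signal.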
Potency means the concentration at half of the fitted maximal effect; tags describe the fitted curve by direction and shape.

Chain of UniProt P43220 (P43220 whole entry, looked up): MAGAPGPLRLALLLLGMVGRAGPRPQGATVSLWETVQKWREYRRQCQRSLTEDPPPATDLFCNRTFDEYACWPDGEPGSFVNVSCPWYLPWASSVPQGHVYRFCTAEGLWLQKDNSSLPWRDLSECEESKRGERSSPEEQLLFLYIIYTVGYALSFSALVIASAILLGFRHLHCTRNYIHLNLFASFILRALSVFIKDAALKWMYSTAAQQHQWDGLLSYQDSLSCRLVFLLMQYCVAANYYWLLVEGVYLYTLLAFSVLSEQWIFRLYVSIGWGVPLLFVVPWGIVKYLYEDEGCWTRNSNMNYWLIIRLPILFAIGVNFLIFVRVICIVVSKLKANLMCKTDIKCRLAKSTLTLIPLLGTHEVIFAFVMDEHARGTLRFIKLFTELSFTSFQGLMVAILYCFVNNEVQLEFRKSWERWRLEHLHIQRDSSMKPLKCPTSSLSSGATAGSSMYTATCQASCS

Potency, inactive:
Fc1ccc(-c2nc3c(Cl)cc(C(F)(F)F)cn3c2Cc2cccc(Cl)c2)cc1
CCc1cccc(-n2nnc(-c3nc(-c4ccccc4Cl)no3)c2N)c1
Cn1nccc1C(=O)Nc1ccc2c(c1)OCO2
COC(=O)c1ccc2c(=O)n(-c3ccccc3F)c(=S)[nH]c2c1
CN=C1S/C(=C\c2cc(C)n(-c3ccccc3F)c2C)C(=O)N1C
COC(=O)c1ccccc1NC(=O)c1c(NC(=O)c2ccco2)sc2c1CCC(C(C)(C)C)C2 (stereo not drawn)
CC(O)[C@H](NC(=O)C1(c2ccccc2)CCN(C(=O)OC(C)(C)C)CC1)C(=O)O (stereo partly drawn)
Cc1ccc2c(CC(=O)Nc3ccc(N4CCN(C)CC4)cc3C)coc2c1
COCCNC(=S)Nc1cc(OC)c(NC(=O)c2ccco2)cc1OC
CCOC(=O)[C@H]1[C@H]2COc3ccc(OC)cc3[C@@H]2N2C(=O)c3cc(OC)c(OC)cc3NC(=O)[C@@]12C
O=C1C2C(C(=O)N1/N=C/c1cc([N+](=O)[O-])c(O)cc1O)C1C=CC2C12CC2 (stereo not drawn)
CC=CCn1c(SCCCc2ccccc2)nc2c1c(=O)[nH]c(=O)n2C
CCCOc1cccc(C(=O)N(Cc2ccc(C)o2)C2CCS(=O)(=O)C2)c1 (stereo not drawn)
O=c1[nH]c2cc3c(cc2cc1CN(Cc1cccs1)Cc1nnnn1Cc1ccco1)OCCO3

Potency, inconclusive:
O=C(NCC(c1cccnc1)N1CCc2ccccc2C1)C(=O)Nc1ccc(Cl)cc1 (stereo not drawn) 5.01 µM [inhibitor, single point]
O=S(=O)(Cc1ccc(Cl)cc1)NCc1ccc2c(c1)OCO2 11.2 µM [inhibitor, single point]
CCOc1ccc(-n2c(O)c(/C=N/Nc3nnc(C)c(=O)[nH]3)c3ccccc3c2=O)cc1 3.98 µM [inhibitor, full curve, poor fit]
O=C(NC1=NCCS1)C12CC3CC(CC(C3)C1)C2 15.8 µM [inhibitor, partial curve, poor fit]
CCn1ccnc1CN(C)Cc1cn(-c2ccc(C)cc2)nc1-c1ccc(F)cc1 28.2 µM [inhibitor, single point]
Cc1cccc(N2CCN(C(=O)c3cnn(-c4cccc(Cl)c4C)c3C3CCNCC3)CC2)c1C 10 µM [inhibitor, partial curve, poor fit]
CC(C)c1ccc(OCc2ccc(C(=O)N3CCCC3)o2)cc1 10 µM [inhibitor, single point]
CC12CS(=O)(=O)CC1SC(=S)N2Cc1ccccc1 (stereo not drawn) 31.6 µM [inhibitor, single point]
Cc1onc(-c2ccccc2)c1C(=O)N1CCN(C/C=C/c2ccccc2)CC1 11.2 µM [inhibitor, partial curve, poor fit]
CCN1CCCC1CN(Cc1cc2ccc(C)c(C)c2[nH]c1=O)C(=O)Nc1ccccc1OC (stereo not drawn) 31.6 µM [inhibitor, partial curve, poor fit]
CCCC(C)(C)C(=O)N1CCC1(C)C(=O)Nc1cccc(OC)c1 (stereo not drawn) 28.2 µM [inhibitor, single point]
Cc1cccc(OCc2occc2C(=O)Nc2cccc(-n3cnnn3)c2)c1 1 µM [inhibitor, full curve, poor fit]
CC(CCc1ccccc1)NC(=O)c1ccc(NC(=O)c2cccc(Br)c2)cc1 (stereo not drawn) 3.16 µM [inhibitor, full curve, poor fit]
CCOC(=O)c1c(NC(=O)CSc2nc3ccc(OC)cc3[nH]2)sc2c1CC(C)(C)NC2(C)C 11.2 µM [inhibitor, partial curve, poor fit]
Cc1ccc(NC(=O)Nc2ccc3c(c2)OCO3)c(OC(F)F)c1 11.2 µM [inhibitor, single point]
CC(Oc1ccc2c3c(c(=O)oc2c1)CCC3)C(=O)NC1CCN(Cc2ccccc2)CC1 (stereo not drawn) 11.2 µM [inhibitor, partial curve, poor fit]
O=C(Nc1ccccc1)N(Cc1cccs1)C1CCCC1 8.91 µM [inhibitor, partial curve, poor fit]
CCCc1nc2oc3c(NCCCN(C)C)ncnc3c2c2c1CCCC2 3.98 µM [inhibitor, full curve, poor fit]
Cc1ccccc1OCc1nnc(SCCN2CCCC2)n1-c1ccccc1 12.6 µM [inhibitor, partial curve, poor fit]
COc1ccc(N2CCN(S(=O)(=O)CCNC(=O)C34CC5CC(CC(C5)C3)C4)CC2)cc1 20 µM [inhibitor, single point]
O=S(=O)(c1ccc2c(c1)OCCO2)N(Cc1ccc(F)cc1)Cc1nnc(-c2cccs2)o1 28.2 µM [inhibitor, single point]
O=C1N[C@@H](Cc2ccccc2)COC(=O)[C@@H](Cc2ccc(F)cc2)CC/C=C/C[C@@H]1CC(=O)N(CCO)Cc1ccccc1 22.4 µM [inhibitor, partial curve, poor fit]
CCN(CC)C(=O)c1sc2c(c1C)c(=O)n(Cc1ccccc1)c(=O)n2Cc1ccc(Cl)cc1 10 µM [inhibitor, partial curve, poor fit]
Cc1cccc(-n2c(C)cc(C(=O)NC3CCCCC3)c2C)c1 31.6 µM [inhibitor, single point]
CCCCNc1ccc(C(F)(F)F)cc1S(=O)(=O)NCCc1ccc(F)cc1 28.2 µM [inhibitor, single point]
COc1ccc([C@H]2Oc3cc(O)cc(O)c3C(=O)C2[C@@H]2C(=O)c3c(O)cc(O)cc3O[C@@H]2c2ccc(OC)cc2)cc1 (stereo partly drawn) 11.2 µM [inhibitor, partial curve, poor fit]
CCc1nc2ccccc2c(C(=O)OCC(=O)NC2CCCC2)c1C 20 µM [inhibitor, single point]
CCOC(=O)C(Cc1ccccc1)C(=O)Nc1cccc2ccccc12 (stereo not drawn) 31.6 µM [inhibitor, partial curve, poor fit]
COc1cc(NC(=O)CC2C(=O)N(c3cccc(C)c3)C(=O)N2Cc2ccc(F)cc2)cc(OC)c1 (stereo not drawn) 11.2 µM [inhibitor, single point]
O=C(CCl)N1c2ccccc2Sc2ccc3ccccc3c21 4.47 µM [inhibitor, partial curve, poor fit]
COc1cccc2sc(NC(=O)c3ccc(Br)s3)nc12 22.4 µM [inhibitor, single point]
O=C(CN1C(=O)C2CC=CCC2C1=O)Nc1cc(C(F)(F)F)ccc1N1CCCC1 (stereo not drawn) 28.2 µM [inhibitor, single point]
Cn1c(=S)c2[nH]c(SCCN)nc2n(C)c1=O 14.1 µM [inhibitor, partial curve, poor fit]
OCC1(CCOc2ccccc2)CCN(C2Cc3ccccc3C2)CC1 31.6 µM [inhibitor, single point]
Cc1cc(Br)ccc1NC(=S)Nc1cccc([N+](=O)[O-])c1 22.4 µM [inhibitor, single point]
Cc1cccc(NC(=O)c2cc(-c3cc(C)cc(C)c3O)n[nH]2)c1 10 µM [inhibitor, single point]
CC(=O)CCc1ccc(OCCCCN2CCC(Cc3ccccc3)CC2)cc1 28.2 µM [inhibitor, single point]
CCN(CC)c1ccc(NC(=O)CSc2nc(C3CC3)nc3ccccc23)cc1C 6.31 µM [inhibitor, full curve, poor fit]
COc1ccc(-c2noc(CCC(=O)NCCCN3CCC(C)CC3)n2)cc1 22.4 µM [inhibitor, partial curve, poor fit]
COCCNC(=O)c1cccc(OC2CCN(Cc3ccc(OC(F)F)cc3)CC2)c1 12.6 µM [inhibitor, single point]
O=C(Nc1ccc(OC(F)F)cc1)c1cc(S(=O)(=O)N2CCOCC2)ccc1F 6.31 µM [inhibitor, partial curve]
COc1ccc(OCC(=O)N2CCCC(CO)(CCOc3ccccc3)C2)cc1 (stereo not drawn) 7.94 µM [inhibitor, single point]
COc1cccc(NS(=O)(=O)c2ccc(-c3cc(C)no3)s2)c1 3.98 µM [inhibitor, partial curve]
Cc1cc(Cl)c(OCCOCCN2CCC(C)CC2)c(Br)c1 12.6 µM [inhibitor, partial curve, poor fit]
Cc1sc(NC(=O)C2CC(=O)N(Cc3ccco3)C2)nc1-c1ccccc1 (stereo not drawn) 28.2 µM [inhibitor, single point]

Potency, active:
O=C(NC1CCCc2c1cnn2-c1ccccc1F)c1ccccc1N1CCOCC1 (stereo not drawn) 7.94 µM
CC(SCc1ccccc1)C(=O)N/N=C/c1cc2c(cc1Br)OCO2 (stereo not drawn) 10 µM
CCOC(=O)c1cc(-c2ccccc2)n(-c2cccc(C(=O)Nc3ccc(OCC)cc3)c2)c1C 5.01 µM
CCN(CC)P(=O)(Nc1cccc(C(F)(F)F)c1)c1ccc(N(C)C)cc1NC(=O)c1ccco1 (stereo not drawn) 2.51 µM
